Test results: US11278595B2, “Peptides comprising non-natural amino acids and methods of making and using the same” (Longevity Biotech, Inc., priority 2013, dated 2022)
Read-outs that look alike come from different tables or passages of the source. Part of at least one peptide drawing is inferred or uncertain, most often the ends. Numbered stars: 1 amine (or outer) side, 2 acyl side, 3 side chain; on linkers, the order of the positions; unused ones are H or OH. Square brackets hold non-standard residues; d marks the D form. Peptide text beside a SMILES is read from it. ξ: configuration not given here. ξ(4-Aminopyrrolidine-3-CO) = O=C(C1CNCC1N[*:1])[*:2]; β3hT = C[C@@H](O)[C@H](N)CC(=O)O; β3hQ = NC(=O)CC[C@H](N)CC(=O)O; X3 = O=C(C1CCCC1N[*:1])[*:2]; β3hL = CC(C)C[C@H](N)CC(=O)O; β3hK = NCCCC[C@H](N)CC(=O)O; β3hV = CC(C)[C@H](N)CC(=O)O; βAla = NCCC(=O)O

Key:
[1] = biological target: T1, VIPR2 (vpac2) (Homo sapiens, UniProt P41587); assay: cell-based cAMP assay (DiscoveRx HitHunter cAMP XS+, cAMP Hunter cell lines), agonist mode; conditions: read-out: EC50 vpac2 (Molar)
T1 sequence (P41587 24-438): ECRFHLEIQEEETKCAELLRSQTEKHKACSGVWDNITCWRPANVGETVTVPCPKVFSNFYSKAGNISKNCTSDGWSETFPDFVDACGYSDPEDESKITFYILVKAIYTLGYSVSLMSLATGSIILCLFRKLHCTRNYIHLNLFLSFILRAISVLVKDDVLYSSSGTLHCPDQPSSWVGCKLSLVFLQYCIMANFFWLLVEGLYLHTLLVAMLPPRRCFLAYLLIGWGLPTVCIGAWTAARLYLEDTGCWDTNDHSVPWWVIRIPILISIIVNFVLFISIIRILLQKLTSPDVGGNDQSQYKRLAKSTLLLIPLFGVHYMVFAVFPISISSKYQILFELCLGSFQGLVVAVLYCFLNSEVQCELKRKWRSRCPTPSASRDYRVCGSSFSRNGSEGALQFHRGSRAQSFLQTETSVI

[2] = biological target: T2, VIPR1 (Homo sapiens, UniProt P32241); assay: In-vitro internalization assay (PathHunter eXpress CHO-K1 VIPR1 cells); type: cell-based; conditions: FIG. 2, CHO-K1 VIPR1 cells; read-out: EC50 of ligand mediated receptor internalization (relative chemiluminescent signal)
T2 construct: host or cells: CHO-K1 (PathHunter eXpress)
T2 sequence (P32241 31-457): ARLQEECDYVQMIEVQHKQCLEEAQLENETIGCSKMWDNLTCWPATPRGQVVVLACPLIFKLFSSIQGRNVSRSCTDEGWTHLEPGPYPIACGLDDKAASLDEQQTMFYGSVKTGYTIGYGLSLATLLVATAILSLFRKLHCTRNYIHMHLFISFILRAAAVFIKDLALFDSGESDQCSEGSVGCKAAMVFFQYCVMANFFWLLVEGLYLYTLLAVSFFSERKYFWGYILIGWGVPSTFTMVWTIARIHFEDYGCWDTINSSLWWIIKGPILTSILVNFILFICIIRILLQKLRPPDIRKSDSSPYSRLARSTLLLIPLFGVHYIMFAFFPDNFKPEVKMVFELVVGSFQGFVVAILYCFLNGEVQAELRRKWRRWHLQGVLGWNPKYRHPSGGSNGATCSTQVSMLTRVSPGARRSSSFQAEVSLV

[3] = biological target: T3, VIPR1 (vpac1) (Homo sapiens, UniProt P32241); assay: cell-based cAMP assay (DiscoveRx HitHunter cAMP XS+, cAMP Hunter cell lines), agonist mode; conditions: read-out: EC50 vpac1 (Molar)
T3 sequence (P32241 31-457): T2 sequence (P32241 31-457)

[4] = Table 2, VPAC2 selective analogs
[5] = Table 3, VPAC1 selective analogs

| Structure (SMILES) | EC50 [1, 4] [nM] | EC50 [2] [nM] | EC50 [3, 4] [nM] | EC50 [1, 5] [nM] | EC50 [3, 5] [nM] |
| --- | --- | --- | --- | --- | --- |
| CC(=O)N[C@@H](Cc1c[nH]cn1)C(=O)NC1CCCC1C(=O)N[C@@H](CC(=O)O)C(=O)N[C@@H](C)C(=O)NC1CCCC1C(=O)N[C@@H](Cc1ccccc1)C(=O)N[C@H](C(=O)N[C@@H](CCC(=O)O)C(=O)N[C@@H](CC(N)=O)C(=O)N[C@@H](Cc1ccc(O)cc1)C(=O)N[C@H](C(=O)N[C@@H](CCCCN)C(=O)N[C@@H](CC(C)C)C(=O)N[C@@H](CCCNC(=N)N)C(=O)N[C@@H](CCCCN)C(=O)N[C@@H](CCC(N)=O)C(=O)N[C@@H](CC(C)C)C(=O)N[C@@H](C)C(=O)N[C@@H](C)C(=O)NC1CNCC1C(=O)N[C@@H](CCCCN)C(=O)N[C@@H](Cc1ccc(O)cc1)C(=O)NC1CCCC1C(=O)N[C@@H](CC(N)=O)C(=O)N[C@@H](CC(=O)O)C(=O)N[C@@H](CC(C)C)C(=O)N[C@@H](CCCCN)CC(=O)N[C@@H](CCCCN)C(=O)NCC(=O)NCCC(=O)N[C@H](C(N)=O)[C@@H](C)O)[C@@H](C)O)[C@@H](C)O (stereo partly drawn) [LBT-V208, Ac-HxDAxFTENYTKLRKQLAAzKYxNDLkKGgT] (Ac-H[X3]DA[X3]FTENYTKLRKQLAA[ξ(4-Aminopyrrolidine-3-CO)]KY[X3]NDL[β3hK]KG[βAla]T-NH2) | 0.646 | 10.2 | 133 |  |  |
| CC(=O)N[C@@H](Cc1c[nH]cn1)C(=O)NC1CCCC1C(=O)N[C@@H](CC(=O)O)C(=O)N[C@@H](C)C(=O)N[C@H](CC(=O)N[C@@H](Cc1ccccc1)C(=O)N[C@H](C(=O)N[C@@H](CCC(=O)O)C(=O)N[C@@H](CC(N)=O)C(=O)N[C@@H](Cc1ccc(O)cc1)C(=O)N[C@H](C(=O)N[C@@H](CCCCN)C(=O)N[C@@H](CC(C)C)C(=O)N[C@@H](CCCNC(=N)N)C(=O)N[C@@H](CCCCN)CC(=O)N[C@@H](CCC(N)=O)C(=O)N[C@@H](CC(C)C)C(=O)N[C@@H](C)C(=O)N[C@@H](C)C(=O)NC1CNCC1C(=O)N[C@@H](CCCCN)C(=O)N[C@@H](Cc1ccc(O)cc1)C(=O)NC1CCCC1C(=O)N[C@@H](CC(N)=O)C(=O)N[C@@H](CC(=O)O)C(=O)N[C@@H](CC(C)C)C(=O)N[C@@H](CCCCN)CC(=O)N[C@@H](CCCCN)C(=O)NCC(=O)NCCC(=O)N[C@H](C(N)=O)[C@@H](C)O)[C@@H](C)O)[C@@H](C)O)C(C)C (stereo partly drawn) [LBT-V213, Ac-HxDAvFTENYTKLRkQLAAzKYxNDLkKGgT] (Ac-H[X3]DA[β3hV]FTENYTKLR[β3hK]QLAA[ξ(4-Aminopyrrolidine-3-CO)]KY[X3]NDL[β3hK]KG[βAla]T-NH2) | 1.27 |  | 293 |  |  |
| CC[C@H](C)[C@H](NC(=O)[C@H](C)NC(=O)[C@H](CC(N)=O)NC(=O)C[C@H](CC(C)C)NC(=O)[C@H](Cc1ccc(O)cc1)NC(=O)[C@H](CCCCN)NC(=O)[C@H](CCCCN)NC(=O)C[C@@H](NC(=O)[C@H](C)NC(=O)[C@H](CC(C)C)NC(=O)[C@H](CCC(N)=O)NC(=O)C[C@H](CCCCN)NC(=O)[C@H](CCCNC(=N)N)NC(=O)[C@H](CC(C)C)NC(=O)[C@H](CCCNC(=N)N)NC(=O)C[C@@H](NC(=O)[C@H](Cc1ccc(O)cc1)NC(=O)[C@H](CC(N)=O)NC(=O)[C@H](CC(=O)O)NC(=O)[C@@H](NC(=O)[C@H](Cc1ccccc1)NC(=O)[C@@H](NC(=O)[C@H](C)NC(=O)[C@H](CC(=O)O)NC(=O)C1CCCC1NC(=O)[C@@H](N)Cc1c[nH]cn1)C(C)C)[C@@H](C)O)[C@@H](C)O)C(C)C)C(=O)N[C@H](CC(=O)N[C@@H](CC(N)=O)C(N)=O)CC(C)C (stereo partly drawn) [LBT-V102, HxDAVFTDNYtRLRkQLAvKKYlNAIlN] (H-H[X3]DAVFTDNY[β3hT]RLR[β3hK]QLA[β3hV]KKY[β3hL]NAI[β3hL]N-NH2) |  |  |  | 4900 | 5.66 |
| CC(=O)N[C@@H](Cc1c[nH]cn1)C(=O)N[C@@H](CO)C(=O)N[C@@H](CC(=O)O)C(=O)N[C@@H](C)C(=O)N[C@H](C(=O)N[C@@H](Cc1ccccc1)C(=O)N[C@H](C(=O)N[C@@H](CCC(=O)O)C(=O)N[C@@H](CC(N)=O)C(=O)N[C@@H](Cc1ccc(O)cc1)C(=O)N[C@H](C(=O)N[C@@H](CCCCN)C(=O)N[C@@H](CC(C)C)C(=O)N[C@@H](CCCNC(=N)N)C(=O)N[C@@H](CCCCN)C(=O)N[C@@H](CCC(N)=O)C(=O)NC1CCCC1C(=O)N[C@@H](C)C(=O)N[C@@H](C)C(=O)N[C@@H](CCCCN)C(=O)NC1CNCC1C(=O)N[C@@H](Cc1ccc(O)cc1)C(=O)N[C@@H](CC(C)C)C(=O)NC1CCCC1C(=O)N[C@@H](CC(=O)O)C(=O)N[C@@H](CC(C)C)C(=O)N[C@@H](CCCCN)C(=O)N[C@@H](CCCCN)CC(=O)NCC(=O)NCC(=O)N[C@H](C(N)=O)[C@@H](C)O)[C@@H](C)O)[C@@H](C)O)C(C)C (stereo partly drawn) [LBT-V220, Ac-HSDAVFTENYTKLRKQxAAKzYLxDLKkGGT] (Ac-HSDAVFTENYTKLRKQ[X3]AAK[ξ(4-Aminopyrrolidine-3-CO)]YL[X3]DLK[β3hK]GGT-NH2) | 0.422 |  | 9.51 |  |  |
| CC(=O)N[C@@H](Cc1c[nH]cn1)C(=O)NC1CCCC1C(=O)N[C@@H](CC(=O)O)C(=O)N[C@@H](C)C(=O)N[C@H](CC(=O)N[C@@H](Cc1ccccc1)C(=O)N[C@H](C(=O)N[C@@H](CCC(=O)O)C(=O)N[C@@H](CC(N)=O)C(=O)N[C@@H](Cc1ccc(O)cc1)C(=O)N[C@H](C(=O)N[C@@H](CCCCN)C(=O)N[C@@H](CC(C)C)C(=O)N[C@@H](CCCNC(=N)N)C(=O)N[C@@H](CCCCN)C(=O)N[C@@H](CCC(N)=O)CC(=O)N[C@@H](CC(C)C)C(=O)N[C@@H](C)C(=O)N[C@@H](C)C(=O)NC1CNCC1C(=O)N[C@@H](CCCCN)C(=O)N[C@@H](Cc1ccc(O)cc1)C(=O)NC1CCCC1C(=O)N[C@@H](CC(N)=O)C(=O)N[C@@H](CC(=O)O)C(=O)N[C@@H](CC(C)C)C(=O)N[C@@H](CCCCN)CC(=O)N[C@@H](CCCCN)C(=O)NCC(=O)NCCC(=O)N[C@H](C(N)=O)[C@@H](C)O)[C@@H](C)O)[C@@H](C)O)C(C)C (stereo partly drawn) [LBT-V212, Ac-HxDAvFTENYTKLRKqLAAzKYxNDLkKGgT] (Ac-H[X3]DA[β3hV]FTENYTKLRK[β3hQ]LAA[ξ(4-Aminopyrrolidine-3-CO)]KY[X3]NDL[β3hK]KG[βAla]T-NH2) | 3.52 |  | 1530 |  |  |
| CC[C@H](C)[C@H](NC(=O)[C@H](C)NC(=O)[C@H](CC(N)=O)NC(=O)C[C@H](CC(C)C)NC(=O)[C@H](Cc1ccc(O)cc1)NC(=O)[C@H](CCCCN)NC(=O)[C@H](CCCCN)NC(=O)C[C@@H](NC(=O)[C@H](C)NC(=O)[C@H](CC(C)C)NC(=O)[C@H](CCC(N)=O)NC(=O)C[C@H](CCCCN)NC(=O)[C@H](CCCNC(=N)N)NC(=O)[C@H](CC(C)C)NC(=O)[C@H](CCCNC(=N)N)NC(=O)C[C@@H](NC(=O)[C@H](Cc1ccc(O)cc1)NC(=O)[C@H](CC(N)=O)NC(=O)[C@H](CC(=O)O)NC(=O)[C@@H](NC(=O)[C@H](Cc1ccccc1)NC(=O)C[C@@H](NC(=O)[C@H](C)NC(=O)[C@H](CC(=O)O)NC(=O)C1CCCC1NC(=O)[C@@H](N)Cc1c[nH]cn1)C(C)C)[C@@H](C)O)[C@@H](C)O)C(C)C)C(=O)N[C@H](CC(=O)N[C@@H](CC(N)=O)C(N)=O)CC(C)C (stereo partly drawn) [LBT-V104, HxDAvFTDNYtRLRkQLAvKKYlNAIlN] (H-H[X3]DA[β3hV]FTDNY[β3hT]RLR[β3hK]QLA[β3hV]KKY[β3hL]NAI[β3hL]N-NH2) |  |  |  | 262 | 4.43 |
| CC(=O)N[C@@H](Cc1c[nH]cn1)C(=O)NC1CCCC1C(=O)N[C@@H](CC(=O)O)C(=O)N[C@@H](C)C(=O)N[C@H](CC(=O)N[C@@H](Cc1ccccc1)C(=O)N[C@H](C(=O)N[C@@H](CCC(=O)O)C(=O)N[C@@H](CC(N)=O)C(=O)N[C@@H](Cc1ccc(O)cc1)C(=O)N[C@H](C(=O)N[C@@H](CCCCN)C(=O)N[C@@H](CC(C)C)C(=O)N[C@@H](CCCNC(=N)N)C(=O)N[C@@H](CCCCN)C(=O)N[C@@H](CCC(N)=O)C(=O)N[C@@H](CC(C)C)C(=O)N[C@@H](C)C(=O)N[C@@H](C)C(=O)NC1CNCC1C(=O)N[C@@H](CCCCN)C(=O)N[C@@H](Cc1ccc(O)cc1)C(=O)NC1CCCC1C(=O)N[C@@H](CC(N)=O)C(=O)N[C@@H](CC(=O)O)C(=O)N[C@@H](CC(C)C)C(=O)N[C@@H](CCCCN)CC(=O)N[C@@H](CCCCN)C(=O)NCC(=O)NCCC(=O)N[C@H](C(N)=O)[C@@H](C)O)[C@@H](C)O)[C@@H](C)O)C(C)C (stereo partly drawn) [LBT-V210, Ac-HxDAvFTENYTKLRKQLAAzKYxNDLkKGgT] (Ac-H[X3]DA[β3hV]FTENYTKLRKQLAA[ξ(4-Aminopyrrolidine-3-CO)]KY[X3]NDL[β3hK]KG[βAla]T-NH2) | 0.859 |  | 1420 |  |  |
